Experimental data from PubChem BioAssay AID1508624 (National Center for Advancing Translational Sciences (NCATS), 2021).
In all, about 48,000 compounds went through this assay and about 120 (0.25%) were called active. About 4% were inconclusive and are not listed. Calls come from the whole dose curve; as a rule, active = well fitted activation curve with a large enough effect; inconclusive = small, poorly fitted or top-dose-only effect, or another doubt; inactive = no such curve, though single readings can be large or run the other way. This is one part of the list.

Assay: Primary qHTS for Identification of Small Molecule Activators of Huntingtin-Antisense Promoter Activity; note: nearly all actives have a fitted effect of over 55% in size
Conditions: HEK293 HTT-AS promoter firefly luciferase reporter, 24 h; series mostly up to 57.5 µM; activity change, positive = activation: at the top concentration
Outline: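 Firefly luciferase signal from promoter-reporter HEK293 cells was scaled between vehicle (0%) and zero RLU (-100%). Compounds were tested at final concentrations of up to 57.5 uM over 24 h at 37 degrees C. PTC124 at 50 uM final served as control inhibitor.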

Activity change, positive = activation, inactive:
Cc1nn(CC(=O)NCc2ccc(OC(C)C)cc2)c(=O)c2c(C)n(-c3ccc(Cl)cc3)nc12 -34.3%
Cc1cccc(NC(=O)Cn2cc(C(=O)c3ccco3)c3ccccc32)c1C -36.3%
CCc1ccccc1NC(=O)Cn1nnc(C(=O)Nc2ccc(C)c(F)c2)c1N 1.26%
CSc1ccc(CCNC(=O)Cn2ncc3c(=O)oc4ccc(C)cc4c32)cc1 -6.84%
CCCCCOc1ccc(C2c3c(oc4ccccc4c3=O)C(=O)N2c2nc(C)c(C)s2)cc1OCC (centres undefined) -0.213% [at 11.5 µM, percent change from vehicle, -100% = no light]
COc1ccccc1CCNc1ncnc2c1nnn2C 5.84%
Cc1ccc(-n2c(=O)c3ccc(C(=O)NCc4ccco4)cc3n(Cc3cccc(Cl)c3)c2=O)cc1 10.1%
CC(C)c1cnc2c(c1SCc1cccc(C(F)(F)F)c1)c(=O)n(C)c(=O)n2C -9.37%
Cc1cccc(-n2c3nc(=O)n(C)c(=O)c-3cc3c(Cl)cccc32)c1C -4.55%
CC(C)CCNC(=O)CSCc1cnn(-c2ccccc2)c1-n1cccc1 -30.1%
CCc1nc(SCC(=O)Nc2ccc(NC(C)=O)cc2)n[nH]1 -19.6%
COC(=O)c1ccccc1NC(=O)Cc1noc2ccc(C)cc12 -11.1%
COc1ccc(Br)cc1CNC(=O)CN1CCSc2ccccc21 -38.7%
COc1ccc(NC(=O)Cn2c(=O)n(Cc3nc(-c4ccccc4)no3)c(=O)c3cc4c(cc32)OCO4)cc1Cl -10.9%
Cc1cccn2c(=O)cc(COc3cccc(NC(=O)c4ccccc4F)c3)nc12 2.21%
O=C(Nc1cccc(Cl)c1)c1csnn1 6.52%
Cc1ccc(-c2nc(SCC(=O)NCC3CCCO3)c(-c3ccc(C)cc3)[nH]2)cc1 (centres undefined) -11.2%
NC(=O)c1cc(S(=O)(=O)NCC2CCC(C(=O)Nc3ccc(Cl)cc3)CC2)cs1 (centres undefined) -15.7%
Cc1ccc([N+](=O)[O-])cc1S(=O)(=O)N(C)N=Cc1cnc2ccc(Br)cn12 -39.4%
Cc1nnc(N2CCN(C(=O)Nc3cccc(C(F)(F)F)c3)CC2)c2nn(-c3ccccc3)c(C)c12 -5.76%
Cn1nc(C(=O)N2CCN(c3ccccc3)CC2)c2c1-c1ccccc1S(=O)(=O)C2 0.539%
COc1ccc(S(=O)(=O)c2c(SC)nn(Cc3ccccc3C)c2NC(C)=O)cc1 -7.66%
O=C(Nc1ccc(O)cc1)c1cccc(S(=O)(=O)N2CCOCC2)c1 -0.527%
O=C(CSc1nc2c([nH]c3ccccc32)c(=O)n1-c1ccccc1)N1CCCC1 -21.6%
O=C(O)c1cn(C2CC2)c2cc(Cl)c(F)cc2c1=O -5.66%
O=c1c2oc3ccccc3c2n(Cc2ccccc2)c(=O)n1Cc1ccc2c(c1)OCO2 -5.97%
CCOC(=O)c1cccc(Nc2ccc3cc(S(=O)(=O)N4CCCCC4)ccc3n2)c1 -30.4%
COc1cc(C2CC(=O)Nc3c2c(=O)[nH]c2ncnn32)ccc1O (centres undefined) -13%
CCOC(=O)C1CCCN(C(=O)c2ccc3c(c2)N(Cc2ccccc2)C(=O)c2ccccc2S3=O)C1 (centres undefined) -15.3%
CCCN1CCCc2cc(CN(CCCN3CCOCC3)C(=O)Nc3ccc(CC)cc3)ccc21 -33.4%
COc1ccc2oc(=O)cc(CN3CCN(c4ccccc4F)CC3)c2c1 -10.8%
COc1cccc(NS(=O)(=O)c2ccc3[nH]cc(C(=O)N(C)C4CCCCC4)c(=O)c3c2)c1 -3.76%
CCCCn1c(=O)c2oc3ccccc3c2n(CC(=O)Nc2cccc(Cl)c2)c1=O -12.9%
CCCCc1nn2c(=O)cc(COC(=O)c3ccccc3NC(=O)c3ccccc3OC)nc2s1 0%
CCCC(=O)N1c2nc(C(C)C)nn2C2(CCCCC2)[C@@H]2CCCC[C@@H]21 -20.2%
COc1cc2c(cc1OC)n(CC(=O)c1ccc(F)cc1)c(=O)n1nc(CCn3nc(C)cc3C)nc21 7.81%
COc1cccc(CNC(=O)c2ccc(NC(=O)N3CCCCc4ccccc43)cc2)c1 -12.4%
CCOC(=O)c1c(S(=O)(=O)N2CCCC(C(=O)Nc3ccc(OCC)cc3)C2)c(C)n(C)c1C (centres undefined) -23.5%
Cn1cc(-c2ccc3nnc(C(F)(F)c4ccc5ncccc5c4)n3n2)cn1 -7.49%
Cc1ccc(S(=O)(=O)c2cn(Cc3cccc(F)c3)c3cc(N4CCCC4)c(F)cc3c2=O)cc1 -1.44%
COc1ccc(C)cc1Nc1nc2c(S(=O)(=O)c3cccc(Cl)c3)nnn2c2ccsc12 -18.8%
CCOc1ccc(NC(=O)c2cc3sc(Cl)cc3n2CC)cc1 0.896%
CCCOc1ccccc1-c1nc(SCC(=O)c2ccccc2)n[nH]1 -24.8%
CCN1CCN(CCCNC(=O)c2ccc3nc(Cc4ccc(OC)cc4)oc3c2)CC1 4.37%
CCOc1cc(CNS(=O)(=O)c2ccc3c(c2)CC(=O)N3C)cc(OCC)c1OCC -9.62%
Cc1cc(C)n(C(C)CC(=O)NCc2ccccc2C)n1 (centres undefined) -4.49%
CCCCN(CCCC)c1ncnc2c1cnn2-c1cccc(C)c1 -17.6%
CC(=O)Nc1ccc(S(=O)(=O)N2CCC(c3ccncc3)CC2)cc1 8.56%
COc1ccc(Br)cc1C(=O)Nc1ccc2oc(-c3cccnc3)nc2c1 17.2%
COC(=O)c1c(NC(=O)c2cc(=O)c3c(C)cc(C)cc3o2)sc2c1CCCC2 -3.95%
Cc1cccc(NC(=O)CN(c2ccc(C(C)C)cc2)S(=O)(=O)c2c(C)nn(C)c2C)c1C -35.4%
CCOC(=O)C1CCN(S(=O)(=O)c2cc(-c3onc(C)c3C)ccc2C)CC1 -35.6%
Cc1ccc(-n2ncc3c(N4CCN(c5ccccc5)CC4)ncnc32)cc1C 0%
CC(=O)N1CCCc2cc(S(=O)(=O)N3CCC(C(=O)N(Cc4ccccc4)C(C)C)CC3)ccc21 -22.6%
COCCn1c(C)cc(O)c(C(c2ccccc2)N2CCC(C)CC2)c1=O (centres undefined) 0.99%
OC[C@@H](O)[C@@H](O[C@@H]1O[C@H](CO)[C@H](O)[C@H](O)[C@H]1O)[C@H](O)[C@@H](O)CO -2.98%
COc1ccc(N2C(=O)CSC23C(=O)N(C)c2ccccc23)cc1Cl (centres undefined) -20%
CCc1ccccc1Nc1cc(C(=O)NCc2ccc(C)cc2)c2ccccc2n1 -18.3%
CCOC(=O)N1CCN(C(=O)c2ccc3c(c2)N(Cc2ccccc2F)C(=O)c2ccccc2S3=O)CC1 (centres undefined) -11.6%
